Experimental data from the supplement of paper PMC3334620.
Whole data set: some 33,000 sequences, median “E-score (-0.5 to 0.5)” near -0.036, cut for the highest 2% near 0.37. The list shows a part of the results.

Biological target: T1, Yer064c (UniProt P40041)
T1 sequence: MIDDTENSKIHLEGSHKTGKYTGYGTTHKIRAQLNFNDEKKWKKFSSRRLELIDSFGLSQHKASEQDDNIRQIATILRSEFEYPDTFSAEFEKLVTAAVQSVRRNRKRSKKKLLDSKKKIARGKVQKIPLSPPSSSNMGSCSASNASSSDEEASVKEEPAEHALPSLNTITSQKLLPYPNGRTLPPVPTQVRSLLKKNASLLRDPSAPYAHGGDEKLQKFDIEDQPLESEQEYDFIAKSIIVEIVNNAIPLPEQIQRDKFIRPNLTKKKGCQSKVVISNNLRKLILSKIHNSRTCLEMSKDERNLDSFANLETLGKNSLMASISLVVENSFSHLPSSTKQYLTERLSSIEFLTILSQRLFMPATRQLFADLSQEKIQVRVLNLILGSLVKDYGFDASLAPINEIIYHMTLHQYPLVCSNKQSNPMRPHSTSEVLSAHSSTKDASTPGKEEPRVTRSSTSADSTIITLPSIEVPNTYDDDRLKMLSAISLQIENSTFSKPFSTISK
Assay: PBM E-score (8-mer binding enrichment) (E-score (-0.5 to 0.5)); higher = stronger / more preferred TF binding; most listed sequences are background and not binding sites
Conditions: protein concentration: 200 nM; construct: GST-full length
Protocol: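 Universal 'all 10-mer' protein binding microarrays (Agilent AMADID 015681) probed with GST-tagged S. cerevisiae TFs (full-length or DBD) made by in vitro transcription/translation (PURExpress), about 100-200 nM. Bound TF was detected with fluorescent anti-GST. Each ungapped 8-mer (which stands for itself and its reverse complement) is scored by the PBM enrichment score (E-score), a modified Wilcoxon-Mann-Whitney statistic from -0.5 to +0.5, computed with the Universal PBM Analysis Suite. Scale: above 0.35 generally sequence-specific binding.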

Sequence	PBM E-score
CAACGAAA	0.131
ACGGGAGG	-0.16
TCTTACAA	0.106
ATTAGGAC	0.131
CGGCCCTA	-0.156
GCACCAGC	-0.0846
GCCGCTCA	-0.21
GTAAACTA	0.0929
GTGTTCCA	0.00081
CCAAGTTC	-0.126
GTCACCTA	0.0872
GTCAGTCA	0.451
CTGTATAC	-0.112
ACGATTGC	0.0745
ACTTAATC	0.354
GGTATCAC	0.0109
GGCATCAC	-0.269
ACAGATAC	-0.0982
ATACACAT	0.198
GTACAGCA	-0.0833
AATTCGGT	0.107
ACCTTAAA	0.0208
AGCCTAGG	-0.247
AGGTTTTC	-0.189
GAATAATA	-0.0836

Sequence	PBM E-score
ACAAGGAT	0.0163
GACGGTTA	-0.15
CTGGTGAA	-0.176
CTACGTAC	0.143
ACGGAACC	-0.0612
CATTATCG	0.00113
ATCGGTCA	-0.0592
ATAAAAAG	0.144
GGGAATAA	-0.128
AAAGCGAC	0.0677
CCTATACA	0.0007
ACGACCCG	-0.249
ACGGGGGA	-0.202
CCATCGCC	-0.148
CACGGTGC	-0.282
GGATTTGA	0.0416
CGTCCCCA	-0.283
CCGCTATC	-0.21
AAAGCACT	0.07
AATACGCC	-0.0474
CTCTGCAC	-0.0711
GCTGGCCC	-0.284
CTTTACAC	0.157
AAGCGTCC	-0.0884
CAGCAGAG	-0.112

Sequence	PBM E-score
AGATATGC	-0.038
CGCTAAAG	-0.00634
AAAAGTCA	0.374
AAGGTACA	-0.0142
CAAAGAGA	-0.0905
ACTTGTGC	0.0157
TCGTTGAA	0.0389
AAATCCTC	-0.175
ATAACTCC	-0.106
CATATACA	0.175
CTAGGTAC	0.0158
GGATGCCC	-0.344
ACCGAGCT	-0.0669
CATCCCAG	-0.0821
CGCAGACA	-0.117
CATAGTGA	0.145
ATGGTCAA	0.13
ATATTCCA	0.0448
CTGCACCC	-0.223
CTATTTTC	-0.0489
ATGACGGC	-0.125
CGAGGAAA	-0.223
GCGCTGAC	0.109
CTAATTCC	0.092
AGGCGCAT	-0.155

Sequence	PBM E-score
AGTCACGG	0.469
CACACGCC	0.00407
CGCTTTGC	-0.0726
GTCTTCTA	0.169
CAAGCGCG	-0.0964
AGAAAGGG	-0.25
GGCTAATA	-0.00286
ACAAGCTG	-0.0827
CGAGATCC	-0.198
AGGAGGTG	-0.23
ATCGAGAA	0.00256
CATGGTCA	0.139
GCGTAGCC	0.074
CACCTAAA	0.0738
AAGCAGTA	-0.168
CTGGCCGA	-0.131
ACAATGGC	-0.146
GTACTGAA	0.0498
AGACTTGC	-0.0824
CGGATCCC	-0.258
CTGGCAGC	-0.215
ACGCGTCC	-0.12
AGCATTTA	-0.1
CAAAATCG	0.0647
GATTACCC	0.303

Sequence	PBM E-score
GATAGGCC	-0.339
ACGTCCCG	-0.231
GACCCGAA	-0.0744
CCTAAGGC	-0.3
AGTTCTGG	0.0591
CAATCATC	0.422
GCGAGACA	0.078
GATTCGCA	0.24
ACCATGCA	-0.0917
CAATCATG	0.369
AAGCCCAC	-0.14
CTTCGCCA	-0.0406
ACCGCCAT	-0.0297
CAATAATA	0.0325
CCCAAACC	-0.17
CAGCCTTA	0.0218
AAGTGGAA	-0.0369
CGAACCTC	0.0376
ACTGGGCC	-0.0542
AACGGTGC	-0.101
AGCACCGC	-0.275
AGCTGAAG	-0.154
AGGTGTTG	-0.0714
TAGAAGCA	-0.0187
GGAGTGAA	0.00813

Sequence	PBM E-score
GTGTCGGA	-0.155
TCATTCAA	0.155
ACCGCACC	-0.0669
AACCATAA	0.214
CTGAGGGA	-0.0863
GCAGTTTA	-0.0332
GTACGCAA	-0.121
CCCAAGTA	-0.18
CCCGGCAC	-0.131
AATCAAGG	0.245
CTAGCAGA	0.0408
GGGACCTA	-0.278
AGAGTCTA	0.158
CGCACACG	-0.0897
ATTGTGAC	0.224
GTCAAGAA	0.127
ATTTAAAA	0.0812
CCCACGAA	0.00666
CTTAGGAC	0.0418
AGTGTTTG	0.0126
TACTAGCA	0.0217
TCCAGTAA	-0.0578
CTTCTCGC	-0.209
CGGCTGAC	0.165
AGCTACAC	0.0599

Sequence	PBM E-score
AGCGAACG	-0.0737
GATACAGA	-0.0679
ACGAATCG	0.136
CGGTTGCA	-0.0928
CGGAGCCG	-0.0548
GATACCTA	0.0265
ATCATGAG	0.34
CGTTTCTA	-0.0262
ATTTCGCC	-0.0382
CATGCCAG	-0.041
GAAGGTGC	-0.207
CGCTTAGA	-0.0803
GTTCTCTA	-0.0867
CATCGCCA	-0.0179
GATATCTA	0.0438
AAACCCTT	-0.0854
CCAAGATA	0.0362
AACTGGCC	-0.17
ACGATGTC	0.0538
AGCGTTAT	-0.258
TCGATCGA	0.313
ACATTTAG	-0.11
GCTCGCGA	-0.0403
GATAGGTA	-0.0911
AATCCTGG	0.0312

Sequence	PBM E-score
CGCCGTGC	-0.269
CCGTGAGG	-0.251
CGATACTC	0.00498
CCCAGGCA	-0.305
AACGGCCG	-0.139
AGACGTAC	-0.0439
AACCTCTC	-0.192
TGTTAGAA	-0.00632
ACACCTAT	-0.123
GCCTCTCA	-0.288
CATCCCGA	0.0689
GTATAAAA	0.0365
GGCTGGGA	-0.202
GTAACTTA	0.166
GGTTTCAC	-0.11
TCGTTAGA	0.0333
ACGAGTGA	0.0355
ATGCGGAG	-0.161
AGTTCTAT	-0.00379
ACAACATG	0.0559
CTGTTGGC	-0.169
GTGAACAC	-0.0561
ATATATTA	0.104
GGCGCGAA	-0.0884
AGTGACCA	0.0284

Sequence	PBM E-score
AGTAAGTG	-0.0587
TCTTAGCA	-0.078
ACACGCAC	-0.0662
TCCGAACA	-0.0345
AAAGGGGA	-0.284
ACACTGTG	-0.0233
CGCGCGAC	-0.0181
CAGAAGGG	-0.0985
CCGCCAGA	-0.0157
GACACACA	0.152
ATCCGCCC	-0.198
ACGCCACG	-0.096
CAGCAGCC	-0.275
CCCATGCC	-0.231
CACGCAAC	0.0612
AACACCTA	-0.0595
ACGGTCAC	-0.254
GCTACCCC	-0.148
CGTACCAC	-0.211
GATAAGCC	-0.206
CCGCTCCA	-0.214
ACCCACCG	0.0677
GTAATCAC	0.413
AGCGCACA	-0.116
ATCGGGAA	-0.0964

Sequence	PBM E-score
CGTAGTTA	-0.00038
CCGATCAG	-0.0636
TACCCAGA	0.117
CACGCGTG	0.126
ACGTTAAT	0.148
CACCGAAC	0.0132
AACCGTAC	-0.0826
CCCCGTTC	-0.0761
GCGGCCAA	-0.0571
ATTCCTGG	0.068
GAAGGGGA	-0.0816
ATTACTAG	0.0126
ACATGGGA	-0.204
GGCTTGTA	-0.155
CCCGTAAA	0.0363
CATATTAG	0.0202
AGGCTCCA	-0.106
GACCTTCC	-0.217
GTATGTAA	0.062
GACCGGTC	-0.369
ACACGGAC	-0.155
CACAATTA	0.0532
CACACACC	-0.0381
CTCCGGCC	-0.246
CATCTCAC	0.00674

Sequence	PBM E-score
CTCTCTCA	0.0661
GTCACATA	0.323
AACCGATC	-0.103
AGCACCAA	-0.0459
ACATCGTG	-0.0442
AAGGATTG	0.0164
AAGTTTGT	-0.0737
CCATCCGC	-0.118
CGGATCAC	0.018
GCCTTACA	-0.192
CCACCGTC	-0.226
TATGCTAA	-0.0046
AAGTTCTC	0.062
AGTAAGCG	-0.0215
TATACGGA	-0.00922
CCCTTTAA	0.0555
AGACAGCC	-0.181
CTGAACGA	0.0953
CACGCCTG	-0.128
AAGTACCG	-0.182
CGCATTGC	0.0144
ATGCCGTA	-0.0237
ATCGAAGA	0.0458
CTCCTCTC	-0.0659
GCCCCCAC	-0.265

Sequence	PBM E-score
CGTAATAA	-0.0457
TTCCACAA	-0.0404
TACAGCCA	-0.152
CGTATCGC	-0.141
ACGAGGAC	0.165
CGCACTAA	-0.0949
AGGCGTGA	0.126
CAAGGCAG	-0.0576
CCTCAAGG	-0.14
TGGCGTAA	-0.21
AAAGAGGC	-0.0253
ATGCAGGC	-0.0553
CGATCCAC	-0.107
ATTCCACC	0.162
ACTGACAC	0.0326
AAGGGAAT	-0.144
GAGCCGAA	-0.161
AAAACAAC	-0.142
AAAATAAG	0.0252
ATTGCTTC	-0.0238
CACATAGG	-0.0221
CAGGTTGA	0.0225
CCTCCATC	-0.14
GCGCCTCA	-0.0686
CGAACGCA	0.0694

Sequence	PBM E-score
AACCGGCA	-0.154
ACATTTCT	-0.168
AGGGCAAC	-0.298
CACTCAAG	0.0873
ATCGCGGC	0.03
CCATGCAG	-0.237
CCCTTAAA	-0.16
CCCATATC	0.00433
ATTTCCAG	-0.073
GCTTCTAA	-0.238
CGCAACAA	-0.146
CAAGCGAA	-0.0875
ATTTGGGG	0.0406
TCGGCCCA	-0.036
GGCTCGGA	-0.182
ATCTTAAT	0.195
CTGGTTAC	-0.143
CAAAGTTA	0.0782
CCTTAGTC	0.41
GAGGCGAC	0.0143
AGCAACTA	0.107
AAGGCCGG	-0.0438
GGTAGGGA	-0.0117
TCGTTACA	0.064
GCTTAGAA	0.0272

Sequence	PBM E-score
AATCCATC	-0.0638
CTGTAGCA	-0.114
GAGTTCCA	-0.0582
ACTGGCTA	0.0549
CTCAGTAC	0.147
AGCGTGCC	-0.274
CGTTTCTC	-0.118
CGCCCCAA	-0.162
GCTGTCCC	-0.329
AGATAGGA	-0.126
ACATCGAA	0.00817
AGGAGTAG	-0.0375
AACTCCAA	0.0471
CATAAAAG	0.0811
CCACCTAC	0.0565
AGGACCAA	-0.219
CAACAAGA	0.112
CCCGCTAC	-0.194
AGAAACAC	-0.0696
